# From the supplement of paper PMC8728848
# Some of the results follow.
# B1: Siglec-9 (Homo sapiens), Q9Y336 (protein)
# chain: MLLLLLPLLWGRERAEGQTSKLLTMQSSVTVQEGLCVHVPCSFSYPSHGWIYPGPVVHGYWFREGANTDQDAPVATNNPARAVWEETRDRFHLLGDPHTKNCTLSIRDARRSDAGRYFFRMEKGSIKWNYKHHRLSVNVTALTHRPNILIPGTLESGCPQNLTCSVPWACEQGTPPMISWIGTSVSPLDPSTTRSSVLTLIPQPQDHGTSLTCQVTFPGASVTTNKTVHLNVSYPPQNLTMTVFQGDGTVSTVLGNGSSLSLPEGQSLRLVCAVDAVDSNPPARLSLSWRGLTLCPSQPSNPGVLELPWVHLRDAAEFTCRAQNPLGSQQVYLNVSLQSKATSGVTQGVVGGAGATALVFLSFCVIFVVVRSCRKKSARPAAGVGDTGIEDANAVRGSASQGPLTEPWAEDSPPDQPPPASARSSVGEGELQYASLSFQMVKPWDSRGQEATDTEYSEIKIHR
# Assays:
# Experiment in all cases: glycan array binding signal (z-score within array); higher = stronger binding
# Settings in all cases: glycan notation: IUPAC condensed, linker removed
# [1] = molecular target: GlcNAc(a1-6)Gal(b1-4)GlcNAc
# Procedure, shortened: (§1)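 Columns mapping to the same glycan were averaged after glycan names were converted to IUPAC-condensed notation. The data come from 3228 arrays in the Consortium for Functional Glycomics database, limited to those with an available protein sequence. Binding is reported as a within-array Z-score averaged across arrays of one protein sequence and across linkers.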
# [2] = molecular target: GlcNAc(b1-2)Gal(b1-3)GalNAc
# Procedure, shortened: as §1
# [3] = molecular target: GlcNAc(b1-2)Man(a1-3)[GlcNAc(b1-2)Man(a1-6)]Man(b1-4)GlcNAc(b1-4)GlcNAc
# Procedure, shortened: as §1
# [4] = molecular target: GlcNAc(b1-2)Man(a1-3)[GlcNAc(b1-2)Man(a1-6)]Man(b1-4)GlcNAc(b1-4)[Fuc(a1-6)]GlcNAc
# Procedure, shortened: as §1
# [5] = molecular target: GlcNAc(b1-2)Man(a1-3)[GlcNAc(b1-4)][GlcNAc(b1-2)Man(a1-6)]Man(b1-4)GlcNAc(b1-4)GlcNAc
# Procedure, shortened: as §1
# [6] = molecular target: GlcNAc(b1-2)Man(a1-3)[GlcNAc(b1-4)][GlcNAc(b1-2)Man(a1-6)]Man(b1-4)GlcNAc(b1-4)[Fuc(a1-6)]GlcNAc
# Procedure, shortened: as §1
# [7] = molecular target: GlcNAc(b1-2)[GlcNAc(b1-4)]Man(a1-3)[GlcNAc(b1-2)Man(a1-6)]Man(b1-4)GlcNAc(b1-4)GlcNAc
# Procedure, shortened: as §1
# [8] = molecular target: GlcNAc(b1-2)[GlcNAc(b1-4)]Man(a1-3)[GlcNAc(b1-4)][GlcNAc(b1-2)Man(a1-6)]Man(b1-4)GlcNAc(b1-4)GlcNAc
# Procedure, shortened: as §1
# [9] = molecular target: GlcNAc(b1-2)[GlcNAc(b1-4)]Man(a1-3)[GlcNAc(b1-4)][GlcNAc(b1-2)[GlcNAc(b1-6)]Man(a1-6)]Man(b1-4)GlcNAc(b1-4)GlcNAc
# Procedure, shortened: as §1
# [10] = molecular target: GlcNAc(b1-2)[GlcNAc(b1-4)]Man(a1-3)[GlcNAc(b1-4)][GlcNAc(b1-2)[GlcNAc(b1-6)]Man(a1-6)]Man(b1-4)GlcNAc(b1-4)[Fuc(a1-6)]GlcNAc
# Procedure, shortened: as §1
# [11] = molecular target: GlcNAc(b1-2)[GlcNAc(b1-6)]Man(a1-6)[GlcNAc(b1-2)Man(a1-3)]Man(b1-4)GlcNAc(b1-4)GlcNAc
# Procedure, shortened: as §1
# [12] = molecular target: GlcNAc(b1-2)[GlcNAc(b1-6)]Man(a1-6)[GlcNAc(b1-2)Man(a1-3)]Man(b1-4)GlcNAc(b1-4)[Fuc(a1-6)]GlcNAc
# Procedure, shortened: as §1
# [13] = molecular target: GlcNAc(b1-2)[GlcNAc(b1-6)]Man(a1-6)[GlcNAc(b1-4)][GlcNAc(b1-2)Man(a1-3)]Man(b1-4)GlcNAc(b1-4)GlcNAc
# Procedure, shortened: as §1
# [14] = molecular target: GlcNAc(b1-3)Fuc
# Procedure, shortened: as §1
# [15] = molecular target: GlcNAc(b1-3)Gal
# Procedure, shortened: as §1
# [16] = molecular target: GlcNAc(b1-3)Gal(b1-3)GalNAc
# Procedure, shortened: as §1
# [17] = molecular target: GlcNAc(b1-3)Gal(b1-4)Glc
# Procedure, shortened: as §1
# [18] = molecular target: GlcNAc(b1-3)Gal(b1-4)GlcNAc
# Procedure, shortened: as §1
binder,measurement,setting,value
B1,glycan array binding signal (z-score),[1],-0.324
same,glycan array binding signal (z-score),[2],-0.132
same,glycan array binding signal (z-score),[3],-0.142
same,glycan array binding signal (z-score),[4],0.025
same,glycan array binding signal (z-score),[5],0.025
same,glycan array binding signal (z-score),[6],-0.288
same,glycan array binding signal (z-score),[7],-0.181
same,glycan array binding signal (z-score),[8],0.232
same,glycan array binding signal (z-score),[9],-0.199
same,glycan array binding signal (z-score),[10],-0.152
same,glycan array binding signal (z-score),[11],-0.167
same,glycan array binding signal (z-score),[12],-0.14
same,glycan array binding signal (z-score),[13],-0.254
same,glycan array binding signal (z-score),[14],-0.068
same,glycan array binding signal (z-score),[15],-0.115
same,glycan array binding signal (z-score),[16],-0.1
same,glycan array binding signal (z-score),[17],-0.137
same,glycan array binding signal (z-score),[18],-0.136
